One molecule from paper PMC7212925 can be followed below.

This test deals with AXL C-terminally fused to LgBiT or SmBiT (NanoBiT construct) (human), P30530. Description: split reporter (BiFC, NanoBiT); NanoBiT complementation in live U87 cells incubated with ligand (Gas6 for AXL, EGF for EGFR; concentration series or 10 nM); signal as ratio to the untreated control. Particulars: remark: other sources report otherwise.

B1: AXL C-terminally fused to LgBiT or SmBiT (NanoBiT construct) (receptor)
chain: [sequence of about 450 residues not given]YVLLGAVVAAACVLILALFLVHRRKKETRYGEVFEPTVERGELVVRYRVRKSYSRRTTEATLNSLGISEELKEKLRDVMVDRHKVALGKTLGEGEFGAVMEGQLNQDDSILKVAVKTMKIAICTRSELEDFLSEAVCMKEFDHPNVMRLIGVCFQGSERESFPAPVVILPFMKHGDLHSFLLYSRLGDQPVYLPTQMLVKFMADIASGMEYLSTKRFIHRDLAARNCMLNENMSVCVADFGLSKKIYNGDYYRQGRIAKMPVKWIAIESLADRVYTSKSDVWSFGVTMWEIATRGQTPYPGVENSEIYDYLRQGNRLKQPADCLDGLYALMSRCWELNPQDRPSFTELREDLENTLKALPPAQEPDEILYVNMDEGGGYPEPPGAAGGADPPTQPDPKDSCSCLTAAEVHPAGRYVLCPSTTPSPAQPADRGSPAAPGQEDGA
With B1, the EC50 of Gas6 for AXL dimerization was found to be 0.6 nM.
